Test results as given in PubChem BioAssay (NCI).
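1) Cells in 96-well plates. 2) Compound, 48 h, 5 concentrations. 3) Linear interpolation between surrounding doses. 4) Unreached endpoint = highest concentration. GI50 marks 50% less growth. TGI is the concentration that stops growth completely.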

Tested on: NCI-H322M lung
Test: NCI anticancer screen, dose series, 48 h

SMILES	GI50	TGI
O=C(c1ccc(Cl)cc1)C1[C@H](c2ccc(Br)cc2)[C@@H](c2ccccc2)NC12C(=O)Nc1ccccc12 (stereo partly drawn)	7.9 µM	26.6 µM
O=C(N/N=C/c1ccc(-c2cccc([N+](=O)[O-])c2)o1)c1[nH]c2ccc(Br)cc2c1-c1ccccc1	8.37 µM	> 100 µM
COc1cc(NC(=O)c2cc(-c3ccc(F)cc3F)ccc2O)cc(OC)c1OC	10.2 µM	28.4 µM
Cc1cc(C(NC(=O)CCCCCNc2cccc3c2C(=O)N(C2CCC(=O)CC2=O)C3=O)c2cccc(N(C)C)c2)c(O)c2ncccc12 (stereo not drawn)	0.584 µM	> 58.5 µM
